In PubChem BioAssay AID1030 (National Center for Advancing Translational Sciences (NCATS), 2008):
The whole screen tested about 220,000 compounds, of which about 16,000 (7.3%) were called active. The shares of active, inactive and inconclusive entries below differ from those in the screen. Calls come from the whole dose curve; as a rule, active = well fitted inhibition curve with a large enough effect (not every such curve was filed as active); inconclusive = small, poorly fitted or top-dose-only effect, or another doubt; inactive = no such curve, though single readings can be large or run the other way. No potency is given beside an inconclusive call; the fits are too rough.

molecular target: Aldehyde dehydrogenase 1A1 (Homo sapiens) (UniProt P00352); assay: qHTS Assay for Inhibitors of Aldehyde Dehydrogenase 1 (ALDH1A1); settings: Purified ALDH1A1, NADH fluorescence, propionaldehyde substrate; series mostly up to 75.3 µM
Sequence of UniProt P00352 (P00352 whole entry, looked up): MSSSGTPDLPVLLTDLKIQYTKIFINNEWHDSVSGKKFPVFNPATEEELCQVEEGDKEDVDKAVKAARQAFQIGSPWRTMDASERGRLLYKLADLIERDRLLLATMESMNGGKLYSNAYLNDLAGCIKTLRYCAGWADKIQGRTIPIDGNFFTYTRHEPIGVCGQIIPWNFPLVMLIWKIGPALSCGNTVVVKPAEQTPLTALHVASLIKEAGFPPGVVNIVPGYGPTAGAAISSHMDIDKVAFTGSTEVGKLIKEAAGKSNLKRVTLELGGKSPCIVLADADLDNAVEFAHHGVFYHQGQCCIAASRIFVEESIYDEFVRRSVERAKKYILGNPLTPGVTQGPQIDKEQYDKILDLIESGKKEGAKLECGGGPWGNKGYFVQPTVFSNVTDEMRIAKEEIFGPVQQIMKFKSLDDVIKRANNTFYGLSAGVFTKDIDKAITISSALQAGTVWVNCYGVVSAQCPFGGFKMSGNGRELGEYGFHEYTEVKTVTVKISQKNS
Potency is the fitted concentration of half-maximal effect; tags give direction and shape of the fitted curve.

Row | SMILES | Potency
1 | Cc1ccc(S(=O)(=O)NC2c3cccc4cccc(c34)C2Sc2n[nH]c(N)n2)cc1 (stereo not given) | active: 3.98 µM
2 | CCc1sc(NC(=O)COC)nc1-c1ccccc1 | inconclusive [inhibitor, single point]
3 | COc1ccc(CCNC(=O)C(=O)NCCOc2ccccc2Cl)cc1OC | inconclusive [inhibitor, partial curve]
4 | NN/C(=C\[N+](=O)[O-])Nc1ccc(Cl)cc1 | active: 28.2 µM
5 | CC(Sc1cccc[n+]1[O-])C(=O)Nc1cccc(S(=O)(=O)N2CCOCC2)c1 (stereo not given) | inconclusive [inhibitor, single point]
6 | COc1ccc(-n2c(=S)[nH]c3cc(C(=O)NCCCN4CCCC4=O)ccc3c2=O)c(OC)c1 | active: 14.1 µM
7 | CNC(=O)CN1C(=O)C2C3C=CC(C3)C2C1=O (stereo not given) | inactive
8 | COc1cccc([C@@H]2Oc3ccc(Br)cc3C(=O)[C@H]2OC(=O)NS(=O)(=O)c2ccc(F)cc2)c1 | inconclusive [inhibitor, single point]
9 | CCOC(=O)N1CCC(N2C(=O)c3ccccc3C2Nc2ccc(S(=O)(=O)N3CCOCC3)cc2)CC1 (stereo not given) | inconclusive [inhibitor, single point]
10 | O=C(Cc1cn2ccsc2n1)Nc1ccccc1Oc1ccccc1 | inactive
11 | CC(C)OC(=O)c1c(NC(=O)CCn2nnc3ccccc32)sc2c1CCCC2 | active: 25.1 µM
12 | COc1ccc(C(C)=O)cc1CSc1nnc(Nc2c(C)cccc2C)s1 | inconclusive [inhibitor, partial curve]
13 | CCOC(=O)/C=C1\SCC(=O)N1CC(=O)NCc1cccc(Cl)c1 | inactive
14 | CC(=O)NCCNc1ncncc1-c1ccccc1CN(C)C | inactive
15 | CCC(=O)NC(=S)Nc1ccc(N2CCN(C(=O)c3ccc(Cl)cc3)CC2)cc1 | inconclusive [inhibitor, single point]
16 | COc1ccc(NS(=O)(=O)c2cc(NC(=O)CC(=O)c3ccc([N+](=O)[O-])cc3)ccc2C)cc1 | inactive
17 | COc1ccc(C(=O)NC(Cc2ccc(OC(=O)c3ccc(OC)cc3)cc2)C(=O)O)cc1 (stereo not given) | inactive
18 | COc1ccc(N2CCN(C(c3cc(OC)ccc3OC)c3nnnn3CC3CCCO3)CC2)cc1 (stereo not given) | inactive
19 | COC(=O)c1sccc1NC(=O)CSc1ccccc1NS(=O)(=O)c1ccc(F)cc1 | inconclusive [inhibitor, partial curve]
20 | O=C(/C=C/c1cccc([N+](=O)[O-])c1)Nc1cccc(NC(=O)c2cccs2)c1 | inconclusive [inhibitor, partial curve]
